Patent US20260144854

Molecular target: alpha-1-anti-trypsin (A1AT), P01009
Sequence (P01009 whole entry, looked up): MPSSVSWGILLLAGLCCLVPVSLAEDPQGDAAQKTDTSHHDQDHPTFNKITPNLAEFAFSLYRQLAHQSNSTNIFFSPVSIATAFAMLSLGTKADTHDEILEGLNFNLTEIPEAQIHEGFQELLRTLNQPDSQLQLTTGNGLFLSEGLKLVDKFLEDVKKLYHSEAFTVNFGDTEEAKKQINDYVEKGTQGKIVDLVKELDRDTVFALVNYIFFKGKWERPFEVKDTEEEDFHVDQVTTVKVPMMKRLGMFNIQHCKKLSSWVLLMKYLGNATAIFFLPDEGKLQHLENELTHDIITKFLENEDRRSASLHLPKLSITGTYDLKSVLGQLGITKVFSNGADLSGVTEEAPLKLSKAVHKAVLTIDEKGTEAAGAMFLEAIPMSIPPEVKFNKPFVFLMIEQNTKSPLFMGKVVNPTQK

B1: porcine pancreatic elastase (PPE) (protein)
chain: VVGGTEAQRNSWPSQISLQYRSGSSWAHTCGGTLIRQNWVMTAAHCVDRELTFRVVVGEHNLNQNDGTEQYVGVQKIVVHPYWNTDDVAAGYDIALLRLAQSVTLNSYVQLGVLPRAGTILANNSPCYITGWGLTRTNGQLAQTLQQAYLPTVDYAICSSSSYWGSTVKNSMVCAGGDGVRSGCQGDSGGPLHCLVNGQYAVHGVTSFVSRLGCNVTRKPTVFTRVSAYISWINNVIASN
- elastase activity after incubation with A1AT (chromogenic substrate assay): Porcine pancrease protease (PPE) showed less susceptibility to alpha 1 anti-trypsin (A1AT) or serum blocking
